This is one part of the list.
What follows are sequences tested against no compound (DMSO) (assay: log2 fold change of degron read counts, EGFP-low vs EGFP+ sorted cells; higher = lower degron-EGFP level without compound (poor expression or instability)). Settings: compound: DMSO control; 18 h.
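Further: jurkat cells carrying a lentiviral library of mutant zinc finger degrons fused to EGFP plus mCherry, mCherry+ cells FACS sorted, degron abundance counted by next-generation sequencing.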

Sequence	log2 fold change of degron read counts
FKCEICGAMFTQKGNLLRHIKL	-1.94
LQCNQCGFSCTQKGNLLRHIKL	0.0284
FICPQCGAGFTQKGNLLRHIKL	-1.04
FCCDICGAAFTQKGNLLRHIKL	-1.75
FLCNQCGRVFTQKGNLLRHIKL	0.197
FQCNVCGANFTQKGNLLRHIKL	-1.29
FYCNQCGHTFTQKGNLLRHIKL	0.0274
FRCEICGAIFTQKGNLLRHIKL	-0.152
FGCPICGAKFTQKGNLLRHIKL	-0.734
FDCPICGHKFTQKGNLLRHIKL	-1.63
FLCEQCGAEFTQKGNLLRHIKL	-2.9
FWCPICGHAFTQKGNLLRHIKL	1.47
FFCDICGAQFTQKGNLLRHIKL	0.175
FFCNVCGAAFTQKGNLLRHIKL	-0.38
FGCDQCGARFTQKGNLLRHIKL	-2.26
FWCEICGASFTQKGNLLRHIKL	-0.679

Sequence	log2 fold change of degron read counts
FYCEICGAQFTQKGNLLRHIKL	-1.63
FLCPQCGATFTQKGNLLRHIKL	-2.16
FGCPICGAYFTQKGNLLRHIKL	0.464
FTCNICGANFTQKGNLLRHIKL	-0.689
FVCPICGAKFTQKGNLLRHIKL	-0.174
FRCEICGRYFTQKGNLLRHIKL	-0.416
FSCEICGHKFTQKGNLLRHIKL	-0.786
FFCDQCGALFTQKGNLLRHIKL	-0.199
FWCPVCGATFTQKGNLLRHIKL	0.873
FVCPQCGAFFTQKGNLLRHIKL	0.521
FWCDQCGACFTQKGNLLRHIKL	-0.243
FDCDVCGAPFTQKGNLLRHIKL	-1.63
FECDVCGALFTQKGNLLRHIKL	-1.86
LGCNQCGFYCTQKGNLLRHIKL	1.93
FWCPVCGASFTQKGNLLRHIKL	0.633
FTCPICGRAFTQKGNLLRHIKL	-0.384
